{"source": "patent US20240390418A1", "about": "(MINERVA BIOTECHNOLOGIES, published 2024)", "binders": {"B1": {"name": "humanized MNE6 scFv-Fc (Fc fusion)", "chain": "DAAQPAEVQLVESGGGLVKPGGSLRLSCAASGFTFSRYGMSWVRQAPGKRLEWVSTISGGGTYIYYPDSVKGRFTISRDNAKNTLYLQMNSLRAEDTAVYYCTRDNYGRNYDYGMDYWGQGTLVTVSSGGGGSGGGGSGGGGSEIVLTQSPATLSLSPGERATLTCSATSSVSYIHWYQQRPGQSPRLLIYSTSNLASGIPARFSGSGSGSDYTLTISSLEPEDFAVYYCQQRSSSPFTFGSGTKVEIK[… human IgG1 Fc …]", "notes": "also called huMNE6 scFv-Fc; hMNE6 scFv-Fc"}}, "assay_in_all_cases": "ELISA, peptide on plate (FIG. 8)", "key": {"PSMGFR peptide": {"target": "T1, PSMGFR peptide", "T1 construct": "also called MUC1* peptide", "T1 peptide": "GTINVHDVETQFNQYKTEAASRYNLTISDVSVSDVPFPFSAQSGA", "source_text": "(§1) The huMNE6 scFv-Fc bound to the PSMGFR peptide and to the PSMGFR N-10 peptide but not to the PSMGFR C-10 peptide. The parent MNE6 antibody and the humanized MNE6 require the C-terminal 10 amino acids of PSMGFR for binding."}, "N-10 peptide": {"target": "T2, N-10 peptide", "T2 construct": "also called PSMGFR N-10; PSMGFR minus 10 amino acids from the N-terminus", "T2 peptide": "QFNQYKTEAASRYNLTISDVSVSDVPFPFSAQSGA", "source_text": "as §1"}, "C-10 peptide": {"target": "T3, C-10 peptide", "T3 construct": "also called PSMGFR C-10; PSMGFR minus 10 amino acids from the C-terminus", "T3 peptide": "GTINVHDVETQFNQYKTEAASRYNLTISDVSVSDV", "source_text": "as §1"}}, "data": [{"binder": "B1", "values": [{"measurement": "binding result", "setting": "PSMGFR peptide", "result": "binds"}, {"measurement": "binding result", "setting": "N-10 peptide", "result": "binds"}, {"measurement": "binding result", "setting": "C-10 peptide", "result": "no binding"}]}]}
